In PubChem BioAssay AID463173 (ICCB-Longwood Screening Facility, Harvard Medical School, 2010):
Screen size: about 52,000 compounds; about 1,700 (3.3%) were called active. Rule as the data show it: active = survival mostly below about 52% (no sharp cut-off); inactive = mostly above about 56%. This is one part of the list.

What follows are compounds tested on Wild type (assay: S. aureus survival, RN4220 and DeltatarO strains – OD600, teichoic acid synthesis inhibitors, primary screen (AID 463173)). Details: S. aureus RN4220 wild type/DeltatarO growth, OD600, 18 h, active compounds read low, screened at 18.75 µg/mL (by protocol).

Q: For `Cc1nc2c(-c3ccccc3)c(C)nn2c(C)c1CCC(=O)NCCc1ccccc1`, which survival is on record?
A: inactive: 73%

Q: Which survival does the source give for `Cc1ccc(N2CCN(C(=O)c3c(C)oc4ncnc(N5CCCCC5)c34)CC2)c(C)c1` here?
A: inactive: 73%

Q: For `O=C(NC1CC(=O)N(c2ccc(Cl)cc2)C1)C1CCCC1` (stereo not drawn), which survival is on record?
A: inactive: 71%

Q: How did the survival turn out when `CCSc1nc2ccccc2c(=O)n1CCOC` was run?
A: inactive: 105%

Q: How did the survival turn out when `CCOC(=O)c1c(C)oc2c1cc(NS(=O)(=O)c1ccc(C)cc1)c1ccccc12` was run?
A: inactive: 86%

Q: `CCC(C)NC(=O)c1ccc2c(c1)nc1n2CCCCC1` (stereo not drawn) was tested. Which survival did it give?
A: inactive: 81%

Q: With `O=C(Nc1cccnc1N1CCOCC1)c1cc2ccccc2oc1=O` as the compound, how does the survival read?
A: inactive: 100%

Q: With `COc1ccc(NC(=O)CSc2nc3c(oc4ccccc43)c(=O)n2-c2ccccc2)cc1OC` as the compound, how does the survival read?
A: inactive: 89%

Q: `CC(C)(C)OC(=O)N1CCC(c2c(C(=O)NCc3ccccc3)cnn2-c2ccc(F)cc2)CC1` was tested. Which survival did it give?
A: inactive: 133%

Q: How did the survival turn out when `CCC(=O)N1c2ccccc2C(C)(c2ccccc2)CC1(C)C` (stereo not drawn) was run?
A: active: -3%

Q: For `CN1CCN(C(=O)c2ccc3c(c2)N(Cc2ccc(F)cc2)C(=O)c2ccccc2S3=O)CC1` (stereo not drawn), which survival is on record?
A: inactive: 89%

Q: `C=CCNc1nc(N2CCCCC2)nc(N2CCCCC2)n1` was tested. Which survival did it give?
A: inactive: 109%

Q: `O=C(CSc1nc(-c2ccccc2)no1)N1CCN(c2ccccc2)CC1` was tested. Which survival did it give?
A: inactive: 78%

Q: How did the survival turn out when `CCOc1ccccc1NC(=O)c1cc(S(=O)(=O)N2CCOCC2)cn1C` was run?
A: inactive: 87%

Q: Which survival does the source give for `Cc1ccc(NC(=O)c2cc(S(=O)(=O)N3CCCCCC3)ccc2F)cc1F` here?
A: inactive: 148%

Q: With `CCN1CCc2c(sc(-n3cccc3)c2C(C)NC(=O)Nc2cc(Cl)c(OC)cc2OC)C1` (stereo not drawn) as the compound, how does the survival read?
A: inactive: 72%

Q: How did the survival turn out when `CC1(C)CC(=O)c2cc(-c3nc(-c4ccc(Cl)cc4)cs3)c(=O)[nH]c2C1` was run?
A: inactive: 78%

Q: With `CC(C)Oc1ccc(NC(=O)c2cc3ccccc3o2)cc1` as the compound, how does the survival read?
A: inactive: 86%

Q: `Cc1sc2c(c1C)c(=O)n(Cc1ccccc1)c(=O)n2CC(=O)N(C)c1ccccc1` was tested. Which survival did it give?
A: inactive: 89%

Q: With `CCCNC(=O)c1cnn2c(C(F)F)cc(-c3ccccc3)nc12` as the compound, how does the survival read?
A: inactive: 65%

Q: For `COc1ccc(CCNc2oc(COc3cccc(C)c3)nc2C#N)cc1OC`, which survival is on record?
A: inactive: 110%

Q: With `CCOc1ccc(Nc2nc3c(S(=O)(=O)c4ccc(CC)cc4)nnn3c3ccc(Cl)cc23)cc1` as the compound, how does the survival read?
A: inactive: 89%

Q: How did the survival turn out when `CC1CCN(S(=O)(=O)c2ccc3c(ccc(=O)n3CC(=O)NCc3ccc(Cl)cc3)c2)CC1` was run?
A: inactive: 59%

Q: `COc1ccc(-c2nc(Cn3c(=O)cc(-c4ccccc4)c4c(C)nn(C)c43)c(C)o2)cc1OC` was tested. Which survival did it give?
A: inactive: 80%

Q: For `CC(=O)N1CCc2cc(Br)cc(S(=O)(=O)NCCc3ccc(Cl)cc3)c21`, which survival is on record?
A: inactive: 75%

Q: With `CC(=O)c1cccc(NC(=O)CCc2nc3cccnc3n2Cc2cccs2)c1` as the compound, how does the survival read?
A: inactive: 80%

Q: `CCOC(=O)CSc1nc(-c2ccc(F)cc2)cc(C(F)(F)F)c1C#N` was tested. Which survival did it give?
A: inactive: 71%

Q: With `O=C(c1cccn1-c1nnc(N2CCCCC2)s1)N1CCN(c2ccc(Cl)cc2)CC1` as the compound, how does the survival read?
A: inactive: 73%

Q: With `COc1ccc(CCNc2nc3ccc(C)cc3n3cnnc23)cc1OC` as the compound, how does the survival read?
A: inactive: 87%

Q: For `Cc1cc(C)cc(NC(=O)C(CC(C)C)NC(=O)C2CCCCC2)c1` (stereo not drawn), which survival is on record?
A: inactive: 69%

Q: For `CN(C)c1ccc(C(=O)Nc2c(C(=O)NC(C)(C)C)oc3ccccc23)cc1`, which survival is on record?
A: inactive: 65%

Q: `CC(C)Oc1ccc(CNC(=O)c2ccc3nc(C(C)C)oc3c2)cc1` was tested. Which survival did it give?
A: inactive: 132%

Q: How did the survival turn out when `COc1ccc(S(=O)(=O)N(CC(=O)Nc2cc(C)cc(C)c2)c2ccc(Cl)cc2)cc1` was run?
A: inactive: 94%

Q: Which survival does the source give for `CCn1c(C(=O)N2CCC(C(=O)N3CCN(c4ccc(OC)cc4)CC3)CC2)cc2sccc21` here?
A: inactive: 62%

Q: How did the survival turn out when `COc1ccc(Cl)cc1N=C1NC(=O)CC(C(=O)Nc2ccccc2C(F)(F)F)S1` (stereo not drawn) was run?
A: inactive: 71%

Q: Which survival does the source give for `CCc1ccccc1N1CC(c2nc3ccccc3n2CCOc2ccc(Cl)c(C)c2)CC1=O` (stereo not drawn) here?
A: active: 2%

Q: Which survival does the source give for `Cc1ccn2cc(-c3cccc(NC(=O)CCC(=O)O)c3)nc2c1` here?
A: inactive: 120%

Q: For `CCNc1nc(NC(C)(C)C)nc(Oc2ccc(=O)n(-c3ccccc3)n2)n1`, which survival is on record?
A: inactive: 76%

Q: How did the survival turn out when `CCc1nn2c(=O)cc(COC(=O)c3ccc4c(c3)OCO4)nc2s1` was run?
A: inactive: 71%

Q: Which survival does the source give for `O=C(NCCn1cc(SCc2ccccc2)c2ccccc21)c1cccs1` here?
A: inactive: 69%

Q: With `CCCc1cc(=O)[nH]c(Nc2ccccc2O)n1` as the compound, how does the survival read?
A: inactive: 86%

Q: Which survival does the source give for `COc1ccc(-c2nc3scc(CCNS(=O)(=O)c4c(C)cc(C)cc4C)n3n2)cc1OC` here?
A: inactive: 100%

Q: How did the survival turn out when `CC(=O)c1c(C)n(-c2ccc(Cl)cc2)c2ccc(OC(=O)COc3ccccc3)cc12` was run?
A: inactive: 87%

Q: `CC(=O)c1cccc(NC(=O)c2ccc(Cl)c(S(=O)(=O)N3CCOCC3)c2)c1` was tested. Which survival did it give?
A: inactive: 72%

Q: Which survival does the source give for `Cc1cc(C)cc(C(=O)Nc2cccc(-c3nc4ncccc4o3)c2C)c1` here?
A: inactive: 76%

Q: How did the survival turn out when `COc1ccccc1CNC(=O)CCCCn1c(=O)c2ccccc2n(Cc2ccccc2C)c1=O` was run?
A: inactive: 99%

Q: Which survival does the source give for `CC(C)(C)C1CCc2c(sc(NC(=O)c3ccccc3F)c2C(=O)NCc2ccco2)C1` (stereo not drawn) here?
A: inactive: 70%

Q: Which survival does the source give for `CCN(C(=O)c1ccc(Br)cc1)c1ccccc1` here?
A: inactive: 105%

Q: For `COc1ccc(C2=NS(=O)(=O)N(C)C(C(=O)Nc3ccc(OC(F)(F)F)cc3)=C2)cc1`, which survival is on record?
A: inactive: 55%

Q: With `CCOC(=O)c1cc2c(=O)n3ccccc3nc2n(CCOC)c1=NC(=O)c1cc2ccccc2o1` as the compound, how does the survival read?
A: inactive: 62%

Q: For `c1ccc(N2CCN(Cc3nnc(-c4ccc5c(c4)OCO5)o3)CC2)cc1`, which survival is on record?
A: inactive: 81%

Q: Which survival does the source give for `CC(C)Oc1ccc(C(=O)NCc2cccnc2)cc1` here?
A: inactive: 111%

Q: Which survival does the source give for `Cc1nn(-c2ccc(N3CCCC3)nn2)c(C)c1CCC(=O)NCc1ccccc1` here?
A: inactive: 77%

Q: For `CN1C(=O)c2ccccc2N(C)C1c1cccs1` (stereo not drawn), which survival is on record?
A: inactive: 117%

Q: For `CN(Cc1ccccc1)S(=O)(=O)c1nnc(NC(=O)c2ccccc2Cl)s1`, which survival is on record?
A: inactive: 41%

Q: `CC(NC(=O)CCCN1C(=O)CCn2nc(-c3cn(C)c4ccccc34)cc21)c1ccccc1` (stereo not drawn) was tested. Which survival did it give?
A: inactive: 72%

Q: With `O=C(CSc1nnc(-c2cccnc2)o1)N(C1CCCCC1)C1CCCCC1` as the compound, how does the survival read?
A: inactive: 109%

Q: For `COc1cccc(-c2ccc3c(N)c(C(=O)c4ccc(F)cc4)sc3n2)c1`, which survival is on record?
A: active: 10%
